Experimental data from PubChem BioAssay AID485281 (National Center for Advancing Translational Sciences (NCATS), 2010).
The whole screen tested about 350,000 compounds, of which about 260 (0.074%) were called active. Inconclusive means that the source gave no clear call. Such entries were picked first, then a sample of the others. Calls follow the shape of the dose curve; as a rule, active = well fitted inhibition curve with a large enough effect; inconclusive = small, poorly fitted or top-dose-only effect; inactive = no such curve, though single readings can be large or run the other way. Potencies beside an inconclusive call are fits to weak or partial responses and may not hold up.

What follows are compounds tested against Ferritin light chain (Equus caballus) (UniProt P02791) (assay: qHTS Assay for Identification of Novel General Anesthetics). Conditions: apoferritin/1-aminoanthracene competitive binding, fluorescence; activity change, negative = displacement: at 77.5 µM (top of the series).
Sequence of UniProt P02791 (P02791 whole entry, looked up): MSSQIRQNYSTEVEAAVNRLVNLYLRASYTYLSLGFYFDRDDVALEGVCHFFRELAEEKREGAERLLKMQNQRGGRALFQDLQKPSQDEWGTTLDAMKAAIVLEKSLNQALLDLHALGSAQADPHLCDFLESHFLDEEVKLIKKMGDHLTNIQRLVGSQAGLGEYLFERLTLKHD
Procedure, shortened: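 Concentration-response curves derived by four-parameter Hill fitting of normalized fluorescence, where compounds displaced 1-AMA from 10 uM horse apoferritin following a brief 10 min room-temperature incubation; propofol titration acted as positive control.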
% is scaled to controls: 0 for no effect and ±100 for the full control effect; potency is read from the fitted curve at half-maximal effect; tags tell the direction and shape of the fitted curve.
Also: nearly all actives have a fitted effect of over 20% in size.

| SMILES | Potency | activity change, negative = displacement |
| --- | --- | --- |
| CCC(C(=O)OCC(=O)c1ccc2c(c1)NC(=O)CO2)c1ccccc1 (configuration not stated) | inconclusive: 31.6 µM [inhibitor, partial curve] | – |
| COc1cc(Br)c(-c2sc(Nc3ccccc3)n[n+]2-c2ccc(F)cc2)cc1OC | inconclusive: 31.6 µM [inhibitor, single point] | – |
| CC(=O)Oc1ccc(N2C(=O)C3C4C=CC(CC4)C3C2=O)cc1[N+](=O)[O-] (configuration not stated) | inconclusive: 28.2 µM [inhibitor, partial curve] | – |
| CCCOC(=O)CSC1=C(C#N)C(c2ccc3c(c2)OCO3)CC(=O)N1 (configuration not stated) | inconclusive: 39.8 µM [inhibitor, partial curve] | – |
| CC(C)c1cnc2c(c1SCc1cccc(F)c1)c(=O)n(C)c(=O)n2C | inconclusive: 35.5 µM [inhibitor, partial curve] | – |
| O=C(/C=C/c1ccc2c(c1)OCO2)NCCSCc1c(Cl)cccc1Cl | – | inactive: 6.67% |
| Cc1ccccc1-c1nc(CS(=O)(=O)CC(=O)Nc2cc(F)ccc2F)c(C)o1 | inconclusive: 56.2 µM [inhibitor, single point] | – |
| CCn1c(COc2ccc(C)cc2)nc2ccccc21 | inconclusive: 25.1 µM [inhibitor, partial curve] | – |
| Fc1cccc(-c2cc3nc4c(c(N5CCOCC5)n3n2)CCCC4)c1 | – | inactive: -7.21% |
| CCOc1ccc(Nc2c(S(=O)(=O)c3ccc(C)cc3)cnc3ccc(OC)cc23)cc1 | inconclusive: 14.1 µM [inhibitor, partial curve] | – |
| O=C(CNC(=O)c1ccccc1O)N/N=C/c1ccccn1 | inconclusive: 15.8 µM [inhibitor, partial curve] | – |
| COc1cccc(CNC(=O)c2n[nH]c3ccccc23)c1 | inconclusive: 35.5 µM [inhibitor, partial curve] | – |
| CCOc1cc([N+](=O)[O-])cc(/C=N/NC(=O)c2c(-c3ccccc3)noc2C)c1O | – | inactive: -20.3% |
| CN1C(=O)c2ccc(NC(=O)CSc3ccccc3)cc2C1=O | – | inactive: -4.61% |
| COc1cc(OC)cc(C(=O)NCc2ccc3c(c2)CCN3C(=O)c2ccccc2)c1 | – | inactive: -6.1% |
| Cc1ccc(N=C2SC(C(=O)Nc3ccc(OC(F)(F)F)cc3)C(N)=C2C(=O)Nc2c(C)cc(C)cc2C)cc1 (configuration not stated) | – | inactive: -13.4% |
| O=C1c2ccccc2C(=O)N1CCCSc1nc2ccccc2o1 | inconclusive: 31.6 µM [inhibitor, partial curve] | – |
| CN(C)c1ccc(-c2nc(-c3ccncc3)no2)cc1[N+](=O)[O-] | inconclusive: 8.91 µM [inhibitor, partial curve] | – |
| CC1CCCN(C(=O)C(Cc2ccccc2)n2cccc2)C1 (configuration not stated) | inconclusive: 31.6 µM [inhibitor, partial curve] | – |
| COCCNc1nnc(SCC(=O)c2ccc3c(c2)OCO3)s1 | inconclusive: 17.8 µM [inhibitor, partial curve] | – |
| C=C(C)COc1ccc(-c2n[nH]c(C)c2-c2ccc(OC)cc2)c(O)c1 | inconclusive: 3.55 µM [inhibitor, full curve, poor fit] | – |
| CCOc1ccc(NC(=O)CSc2nc3nc(C)c(Cc4ccccc4)c(C)n3n2)cc1 | inconclusive: 10 µM [inhibitor, partial curve] | – |
| CCOc1ccc(C(=O)Nc2cccc(-c3cc4ccccc4oc3=O)c2)cc1[N+](=O)[O-] | inconclusive: 7.94 µM [inhibitor, partial curve] | – |

| SMILES | Potency | activity change, negative = displacement |
| --- | --- | --- |
| Nc1nnc(-c2ccc(Cl)c([N+](=O)[O-])c2)s1 | inconclusive: 39.8 µM [inhibitor, single point] | – |
| CCc1cccc2c(C(=S)N3CCCC3)c[nH]c12 | inconclusive: 35.5 µM [inhibitor, partial curve] | – |
| COc1ccc(NC2=CC(=O)CC(C)(C)C2)cc1OC | inconclusive: 25.1 µM [inhibitor, single point] | – |
| COc1ccc(CCNC(=O)CSc2nn3c(=O)c(C)nnc3s2)cc1OC | – | inactive: -1.27% |
| N#Cc1ccsc1NC(=O)COC(=O)c1ccc2ccccc2c1 | inconclusive: 28.2 µM [inhibitor, partial curve] | – |
| O=C(COc1ccc(Cl)cc1)N/N=C/CCc1ccccc1 | inconclusive: 22.4 µM [inhibitor, partial curve] | – |
| CN1CCc2nc(NC(=O)c3cccc(S(=O)(=O)N4CCc5ccccc54)c3)sc2C1 | inconclusive: 5.62 µM [inhibitor, partial curve] | – |
| O=C(OCC(=O)N1CCc2ccccc2C1)c1cccs1 | inconclusive: 39.8 µM [inhibitor, single point] | – |
| NS(=O)(=O)c1ccc(NC(=S)NC(=O)c2cccs2)cc1 | – | inactive: 1.97% |
| Cc1cc2c(cc1S(=O)(=O)N1CCc3ccccc31)NC(=O)CO2 | – | inactive: -16.3% |
| CCOC(=O)c1nc2sc3c(c2c(=O)n1C(C)C(=O)OCC)CCCC3 (configuration not stated) | inconclusive: 17.8 µM [inhibitor, partial curve] | – |
| CCC(C(=O)Nc1ncc(C)s1)c1ccccc1 (configuration not stated) | inconclusive: 25.1 µM [inhibitor, partial curve] | – |
| O=C1/C(=C/c2ccco2)SC(=S)N1CC1CCCO1 (configuration not stated) | inconclusive: 35.5 µM [inhibitor, single point] | – |
| O=S(=O)(c1cnc[nH]1)N1CCN(C(c2ccc(F)cc2)c2ccc(F)cc2)CC1 | inconclusive: 50.1 µM [inhibitor, single point] | – |
| COc1cccc(N2CCN(C(C)C(=O)NC34CC5CC(CC(C5)C3)C4)CC2)c1 (configuration not stated) | inconclusive: 25.1 µM [inhibitor, partial curve] | – |
| Cc1cccc(-n2c3nc(=O)[nH]c(=O)c-3cc3cc([N+](=O)[O-])ccc32)c1 | – | inactive: 5.29% |
| Cc1ccnc(N/N=C/c2ccccc2)n1 | – | inactive: -9.77% |
| COCCCNc1ccc([N+](=O)[O-])cc1C(=O)Nc1cccc(C)n1 | inconclusive: 31.6 µM [inhibitor, partial curve] | – |
| Cc1cccc(N2C(=O)CC(Sc3nc(C)cc(C)n3)C2=O)c1 (configuration not stated) | – | inactive: -2.81% |
| COc1ccc(-c2nn(CC(=O)N3CCCCC3)c(=O)c3ccccc23)cc1 | inconclusive: 3.55 µM [inhibitor, full curve] | – |
| Cc1ccc(C(=O)Nc2ccc(Cc3ccncc3)cc2)cc1[N+](=O)[O-] | inconclusive: 25.1 µM [inhibitor, partial curve] | – |
| CC1(C)CC(c2csc(N)n2)CCO1 (configuration not stated) | inconclusive: 35.5 µM [inhibitor, partial curve, poor fit] | – |
| Cc1ccc(OCCCn2ccnc2)cc1C | active: 17.8 µM | – |

| SMILES | Potency | activity change, negative = displacement |
| --- | --- | --- |
| O=C1C2C3C=CC(C3)C2C(=O)N1Nc1c(Cl)cc(Cl)cc1Cl (configuration not stated) | inconclusive: 31.6 µM [inhibitor, partial curve] | – |
| COc1ccc(/C=N/NC(=O)Cc2csc(Nc3cccc(C(F)(F)F)c3)n2)c(OC)c1 | inconclusive: 22.4 µM [inhibitor, partial curve] | – |
| Cc1c(S(=O)(=O)NCCc2ccccc2)c(=O)n(C)c(=O)n1C | – | inactive: -9.14% |
| O=C1Nc2c(c(=O)[nH]c(=O)n2-c2ccc(Cl)cc2)C1(NS(=O)(=O)c1ccccc1)C(F)(F)F (configuration not stated) | – | inactive: -1.4% |
| CCOc1cc(/C=N/NC(N)=O)cc(Br)c1OCC(=O)Nc1cccc2ccccc12 | – | inactive: -22.2% |
| Cc1cc(N2CCN(C)CC2)ccc1NC(=O)c1cccc(S(=O)(=O)N2CCc3ccccc3C2)c1 | inconclusive: 35.5 µM [inhibitor, single point] | – |
| COc1cc([C@@H]2c3cc4c(cc3[C@@H](O)[C@@H](CO)[C@@H]2CO)OCO4)cc(OC)c1O[Si](C)(C)C(C)(C)C | inconclusive: 39.8 µM [inhibitor, single point] | – |
| COc1ccc(-n2cnnc2SCc2cnc(-c3ccccc3)s2)cc1 | inconclusive: 28.2 µM [inhibitor, partial curve] | – |
| O=c1c2ccccc2c(-c2ccc(F)cc2)nn1-c1ccc(C(F)(F)F)cc1 | inconclusive: 6.31 µM [inhibitor, partial curve] | – |
| Cc1nc(Nc2cccc(O)c2)c2oc3ccccc3c2n1 | – | inactive: -14.8% |
| COc1ccc(N2CSC3=C(C#N)C(c4cccs4)CC(=O)N3C2)cc1 (configuration not stated) | inconclusive: 8.91 µM [inhibitor, partial curve] | – |
| CCCCn1c(CN2CCN(c3cccc(Cl)c3)CC2)nc2c1c(=O)[nH]c(=O)n2C | inconclusive: 1 µM [inhibitor, full curve, poor fit] | – |
| CC1Cc2ccccc2N1C(=O)Cn1c(=O)cc(O)c2ccccc21 (configuration not stated) | inconclusive: 17.8 µM [inhibitor, partial curve] | – |
| CC(C)(C)NC(=O)C12CC3CC(CC(Cl)(C3)C1)C2 | – | inactive: -11.1% |
| CC(C)(C)c1ccc(OCCNC(=S)NC(=O)c2cccnc2)cc1 | inconclusive: 28.2 µM [inhibitor, partial curve] | – |
| CCCCn1nc(C(=O)N[C@@H](CCSC)c2nc3ccccc3[nH]2)c2ccccc2c1=O | inconclusive: 31.6 µM [inhibitor, partial curve] | – |
| COc1ccc(-c2csc(NC(=O)C3CC(=O)N(Cc4ccco4)C3)n2)cc1 (configuration not stated) | inconclusive: 31.6 µM [inhibitor, partial curve] | – |
| CCOc1ccc2ncc(S(=O)(=O)c3ccc(C)cc3)c(N3CCC4(CC3)OCCO4)c2c1 | inconclusive: 31.6 µM [inhibitor, single point] | – |
| COc1ccccc1OCc1ccc(C(=O)N/N=C/c2ccco2)cc1 | inconclusive: 50.1 µM [inhibitor, single point] | – |
| Cc1cc(NC(=O)CN2CCCC2c2nc3ccccc3s2)no1 (configuration not stated) | inconclusive: 28.2 µM [inhibitor, single point] | – |
| CSCC[C@H](NC(=O)[C@H](CC(C)C)N(C)C(=O)[C@@H]1CCCN1C(=O)[C@H](Cc1ccccc1)NC(=O)[C@H](Cc1ccccc1)NC(=O)CCC(C)N)C(=O)O (some centres not stated) | – | inactive: -12.9% |
